Test results taken from publication PMC4336329 (PLoS ONE, 2015).
About 14,000 (4.5%) of roughly 310,000 compounds showed an effect of 50% or more. The effect is printed as a negative number. Some of the results follow.

molecular target: human ether-à-go-go-related gene (hERG) potassium channel (human, UniProt Q12809); assay: primary screen, population patch clamp on CHO cells stably expressing hERG
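Also: peak tail current of the secondary pulse compared with the same well before compound.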

Chain of human ether-à-go-go-related gene (hERG) potassium channel (Q12809 whole entry, looked up): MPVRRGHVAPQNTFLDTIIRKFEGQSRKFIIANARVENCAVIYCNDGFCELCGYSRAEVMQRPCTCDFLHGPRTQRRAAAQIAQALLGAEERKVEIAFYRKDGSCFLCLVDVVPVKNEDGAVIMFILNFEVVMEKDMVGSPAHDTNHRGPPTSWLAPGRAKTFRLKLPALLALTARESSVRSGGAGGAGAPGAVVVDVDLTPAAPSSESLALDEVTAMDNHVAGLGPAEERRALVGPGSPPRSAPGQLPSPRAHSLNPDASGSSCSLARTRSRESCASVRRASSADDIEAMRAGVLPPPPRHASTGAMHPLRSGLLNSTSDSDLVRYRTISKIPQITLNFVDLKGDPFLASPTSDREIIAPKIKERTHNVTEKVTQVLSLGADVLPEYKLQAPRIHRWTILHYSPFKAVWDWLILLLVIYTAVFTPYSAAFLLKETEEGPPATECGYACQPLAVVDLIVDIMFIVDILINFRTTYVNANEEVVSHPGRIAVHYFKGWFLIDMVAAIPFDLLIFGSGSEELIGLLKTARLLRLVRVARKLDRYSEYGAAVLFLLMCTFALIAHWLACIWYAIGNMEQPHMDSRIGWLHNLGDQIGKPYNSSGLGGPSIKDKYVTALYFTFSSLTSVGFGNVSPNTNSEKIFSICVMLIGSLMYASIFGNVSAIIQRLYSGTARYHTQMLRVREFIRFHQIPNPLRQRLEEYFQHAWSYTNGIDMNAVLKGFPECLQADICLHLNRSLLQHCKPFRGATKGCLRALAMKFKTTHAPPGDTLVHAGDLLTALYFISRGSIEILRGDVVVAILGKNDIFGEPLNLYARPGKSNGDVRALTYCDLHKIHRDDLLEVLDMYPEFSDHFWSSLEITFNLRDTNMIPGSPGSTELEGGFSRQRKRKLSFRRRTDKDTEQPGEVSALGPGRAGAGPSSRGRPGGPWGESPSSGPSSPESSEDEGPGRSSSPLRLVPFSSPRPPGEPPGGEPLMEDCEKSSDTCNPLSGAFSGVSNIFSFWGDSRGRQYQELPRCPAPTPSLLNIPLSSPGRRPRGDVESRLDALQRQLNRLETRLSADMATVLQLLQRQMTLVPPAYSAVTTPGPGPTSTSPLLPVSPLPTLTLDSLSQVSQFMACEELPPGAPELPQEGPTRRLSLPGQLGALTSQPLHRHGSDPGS

In order of falling “hERG current change (%, negative = inhibition) at 10uM” value:
1. CCCNC(=O)C1(CC2CC(c3ccccc3)=NO2)CCNCC1 (stereo not drawn)  23.5%
2. CCCCOc1ccc(NC(=O)CCSc2nccn2C)cc1  21.7%
3. COc1ccc(-c2nc(N)n(C(=O)c3cccs3)n2)cc1  21.4%
4. Oc1ccc(/C=N/NC(=S)N/N=C/c2ccc(O)cc2)cc1  19.4%
5. Cc1nn(-c2ccc(F)cc2)c(N)c1C1(O)C(=O)Nc2ccccc21 (stereo not drawn)  16.4%
6. Cc1nc2c(Br)cc(Br)cc2cc1O  15.8%
7. C=CCn1c(-c2ccccc2)n[nH]c1=S  14.3%
8. Cc1ccc2[nH]c3c(=O)n(Cc4ccco4)cnc3c2c1  14.1%
9. O=C(Nc1nonc1NC(=O)C1CCCCC1)C1CCCCC1  14%
10. Cc1ccc(N2CC(O)Cn3c2nc2c3c(=O)[nH]c(=O)n2C)cc1 (stereo not drawn)  13.3%
11. Cc1ccc(C(=O)Cc2ccccc2)o1  13.3%
12. O=S(=O)(NNc1ncc(C(F)(F)F)cc1Cl)c1ccccc1  11.3%
13. Cc1ccc(OCC(=O)Nc2ccccc2C(N)=O)cc1  11.1%
14. CC12CN3CC(C)(CN(C1)C3c1ccc([N+](=O)[O-])o1)C2 (stereo not drawn)  10.8%
15. Cc1ccc(S(=O)(=O)NNC(=S)NCC2CCCO2)cc1 (stereo not drawn)  10.5%
16. COc1ccccc1NC(=S)N1CC(C)(C)C1=O  9.92%
17. Cc1ccc2nc(N3CCN(S(=O)(=O)c4ccc(C)c(Cl)c4)CC3)c(C#N)cc2c1  8.45%
18. Cl.c1csc(-c2cnc3n2CCCC3)c1  8.38%
19. O=C(CN(C(=O)c1csnn1)c1ccc(F)cc1)NCCc1ccccc1  7.95%
20. COc1ccc(C(CC(=O)N2CCCC2)c2c(O)cc(OC)cc2OC)cc1 (stereo not drawn)  5.9%
21. Cc1cc(C(=O)N/N=C/c2ccc(-c3ccc([N+](=O)[O-])cc3C)o2)n[nH]1  5.62%
22. CCS(=O)(=O)N1CCC(C(=O)NCc2ccc(F)cc2)CC1  5.49%
23. Cc1ccc(S(=O)(=O)c2cc3c(=O)n4ccccc4nc3n(CCc3ccccc3)c2=N)cc1  5.39%
24. COC(=O)CN1CCN(C(c2ccccc2)c2ccccc2)CC1  5%
25. C/C(=N\NC(=O)c1nn(C)cc1Cl)c1ccncc1  4.89%
26. O=C(COC(=O)c1cnccn1)c1ccc(Cl)c([N+](=O)[O-])c1  4.23%
27. COc1cccc(-c2nnc(N)o2)c1  3.45%
28. COc1ccc(CNc2nc(=S)[nH]c3cc(OC)c(OC)cc23)cc1  3.1%
29. O=C(Nc1ccc(OCc2ccccc2Cl)cc1)c1cccnc1  1.02%
30. Cc1ccnc(NC(=O)CCC(=O)N(CC(=O)NC(C)(C)C)C2CCCC2)c1  1%
31. CCOCCCNC(=O)c1ccc2c(c1)OCO2  -0.807%
32. CN1CCCC1=Nc1c2c(nc3ccccc13)N(C)CC2  -0.97%
33. Cc1cc(C(=O)Nc2ccc3c(c2)OCCO3)nn1C(C)(C)C  -1.89%
34. Cc1nc2ccccc2cc1C(=O)Nc1ccccc1Cl  -2.31%
35. COCCOC(=O)c1c(C)n(C)c2ccc(OC(=O)c3ccco3)cc12  -2.37%
36. Cc1cc(C)cc(C(=O)n2cnnc2N)c1  -2.51%
37. Cc1ccc(S(=O)(=O)N(C)C)cc1NC(=O)COC(=O)C1CC(=O)N(c2ccc3c(c2)OCCO3)C1 (stereo not drawn)  -4.43%
38. CC(C)C(=O)n1nc(-c2cccnc2)nc1NCc1cccs1  -5.24%
39. CCC(=O)Nc1cc2c(cc1C(=O)CC)OCCO2  -5.79%
40. CCCN(CCO)CCCc1ccccc1  -6.8%
41. COc1ccc(NC(=O)c2ccc(COc3ccccc3)o2)c(OC)c1  -7.06%
42. C/C(=N\NC(=O)c1cc(-c2ccc(Cl)s2)[nH]n1)c1ccncc1  -7.89%
43. Cn1c(=O)c2c(ncn2CC(=O)N/N=C/C(Br)=C/c2ccccc2)n(C)c1=O  -9.23%
44. CCCCN(C(=O)c1ccc(S(=O)(=O)N(C)C)cc1)c1ccccc1  -10.9%
45. COc1ccc(Cc2nnc(NC(=O)c3ccco3)s2)cc1  -11.4%
46. CSC1=NC2(CCCCC2)CC12C=CC(=O)C=C2  -11.6%
47. CCOC(=O)C1(Cc2ccccc2)CCCN(CCCn2cccn2)C1 (stereo not drawn)  -14.2%
48. C/C(=C/c1ccccc1)C(=O)N1CCN(c2ccccc2)CC1  -16.2%
49. CC(C)n1c(SCC(=O)Nc2ccccc2)nc2c1c(=O)n(C)c(=O)n2C  -20.4%
50. CCOCC(=O)Nc1c(C(=O)N2CCN(c3ncccn3)CC2)oc2ccccc12  -21.4%
51. O=C(NC1CCCCCCC1)c1ccc2c(c1)N(Cc1ccc(F)cc1)C(=O)CS2=O (stereo not drawn)  -21.5%
52. COc1ccc(-c2nnn(CC(=O)N(C3CCCCC3)C(C)C(=O)NC3CCCC3)n2)cc1OC (stereo not drawn)  -22.1%
53. CCN(CC(=O)NCc1cccs1)C(=O)C(c1ccccc1)c1ccccc1  -33.7%
54. COc1ccc(N2C(=O)CC(NCCNc3ccc([N+](=O)[O-])cn3)C2=O)cc1 (stereo not drawn)  -34%
55. C=CCOc1cccc(C(=O)N2CCCC(Nc3ccc(F)cc3)C2)c1 (stereo not drawn)  -40%
56. CC(C)c1nc(N2CCN(C(=O)c3ccccc3)CC2)c(C#N)c2c1COC(C)(C)C2  -40.8%
57. Cc1ccc2c(c1)c1c(n2CC(O)CN2CCCCC2C)CCCC1 (stereo not drawn)  -42.6%
58. O=C(Nc1ccc(Cl)cc1)Nc1cccnc1  -50.7%
59. CCOC(=O)c1ccccc1NC(=S)N1CCN(C2CCCCC2)CC1  -62.3%
60. Nc1nc2n(n1)C(c1c(F)cccc1Cl)CC(c1ccc(F)cc1)N2 (stereo not drawn)  -62.4%
